# Measured values reported in a collection of fitness landscapes (doi:10.1038/s41467-024-54723-y).
# In all, about 18,000 sequences were measured (“TetR repression strength (sort-seq, GFP reporter)”: median about 0.23, highest 2% from about 0.68 on). The list shows a part of the results.
# Target: TetR (class B, Tn10) (UniProt P04483)
# Test: TetR repression strength (sort-seq, GFP reporter) (relative to tetO2 = 1); higher = stronger repression
# Settings: E. coli
# Procedure, shortened: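 E. coli SIG10-MAX carried a low-copy plasmid library with eight randomized operator positions between a constitutive promoter and sfGFP, with TetR constitutively expressed. Cells grew 5 h at 37 °C in LB with 50 µg/mL chloramphenicol, then 10^6 cells were FACS-sorted into 13 fluorescence bins, each Illumina-sequenced. Repression strength is the top bin index plus one minus the read-weighted mean bin, divided by the wild-type operator value. Three independent transformations; variants with ≥30 reads in all replicates and CV ≤0.5 were averaged.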
# Chain of UniProt P04483 (P04483 whole entry): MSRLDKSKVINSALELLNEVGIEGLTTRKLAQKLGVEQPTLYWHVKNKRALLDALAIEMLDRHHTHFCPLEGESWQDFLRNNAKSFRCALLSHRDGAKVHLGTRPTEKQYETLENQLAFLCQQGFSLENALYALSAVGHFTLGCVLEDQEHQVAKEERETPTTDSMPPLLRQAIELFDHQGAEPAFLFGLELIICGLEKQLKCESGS
row,Sequence,TetR repression strength
1,TCCCTCTAAGTTACGGAGA,0.328
2,TCCCTATCAGTGTGAGAGA,0.919
3,TCCCGGTCAGTGGTTGAGA,0.345
4,TCCCGCTTAGTTCATGAGA,0.217
5,TCCCAAACAGTGACGGAGA,0.237
6,TCCCGGTCAGTGAGGGAGA,0.284
7,TCCCGTGTAGTAGGTGAGA,0.25
8,TCCCAATGAGTGACCGAGA,0.311
9,TCCCAGACAGTACGCGAGA,0.168
10,TCCCGAGAAGTGAAGGAGA,0.234
11,TCCCATCTAGTCGTCGAGA,0.577
12,TCCCCAAAAGTTGCTGAGA,0.324
13,TCCCGCATAGTGAAGGAGA,0.143
14,TCCCAGGGAGTGAGGGAGA,0.272
15,TCCCATTGAGTTTGCGAGA,0.335
16,TCCCGTGGAGTAATAGAGA,0.0972
17,TCCCAAGGAGTAGGAGAGA,0.119
18,TCCCAGGGAGTCAGGGAGA,0.182
19,TCCCAGAGAGTCATTGAGA,0.183
20,TCCCACTAAGTAGAGGAGA,0.413
21,TCCCCTCAAGTTGGCGAGA,0.113
22,TCCCACAGAGTTTGGGAGA,0.203
23,TCCCGTGAAGTGCTTGAGA,0.311
24,TCCCACGCAGTAGGGGAGA,0.689
25,TCCCTGGCAGTTCCGGAGA,0.163
26,TCCCGCATAGTTGGTGAGA,0.0682

row,Sequence,TetR repression strength
1,TCCCTCGTAGTTACCGAGA,0.244
2,TCCCTGGCAGTGCAGGAGA,0.132
3,TCCCAAGAAGTACTCGAGA,0.104
4,TCCCTGGGAGTCTAGGAGA,0.404
5,TCCCTGCGAGTAGGGGAGA,0.127
6,TCCCATATAGTTACCGAGA,0.366
7,TCCCATATAGTGGCCGAGA,0.28
8,TCCCGGATAGTCGAGGAGA,0.409
9,TCCCGGTAAGTACTTGAGA,0.0622
10,TCCCTAGTAGTCGGAGAGA,0.318
11,TCCCCTTAAGTGCTTGAGA,0
12,TCCCATTGAGTCCTCGAGA,0.577
13,TCCCGCGGAGTCAAGGAGA,0.212
14,TCCCGTCAAGTTATGGAGA,0.352
15,TCCCGATGAGTCGTGGAGA,0.506
16,TCCCAGCGAGTACGTGAGA,0.134
17,TCCCAACTAGTTTTTGAGA,0.148
18,TCCCTGACAGTGAGTGAGA,0.263
19,TCCCTAGTAGTGGCAGAGA,0.311
20,TCCCGTCGAGTGTACGAGA,0.123
21,TCCCGCGAAGTCGAGGAGA,0.258
22,TCCCTCGTAGTGGTTGAGA,0.24
23,TCCCGATGAGTTAGCGAGA,0.201
24,TCCCTTCTAGTACCCGAGA,0.415
25,TCCCTGTAAGTTTTAGAGA,0.207
26,TCCCGTGTAGTCGATGAGA,0.201

row,Sequence,TetR repression strength
1,TCCCCCCTAGTGGGTGAGA,0.211
2,TCCCGGGCAGTCCGCGAGA,0.163
3,TCCCACAAAGTAGAAGAGA,0.235
4,TCCCCTTAAGTGTTTGAGA,0.366
5,TCCCGGGTAGTAGCCGAGA,0.277
6,TCCCGTGAAGTCTGTGAGA,0.159
7,TCCCCACGAGTGAGGGAGA,0.217
8,TCCCAATTAGTGTCTGAGA,0.216
9,TCCCTCGAAGTGTAGGAGA,0.19
10,TCCCATCGAGTGGGCGAGA,0.207
11,TCCCTGAGAGTAGCGGAGA,0.0808
12,TCCCGCCGAGTCGGAGAGA,0.0232
13,TCCCGACAAGTTCATGAGA,0.518
14,TCCCGAGGAGTACGCGAGA,0.0703
15,TCCCCGTAAGTACATGAGA,0.181
16,TCCCACCAAGTTGGTGAGA,0.153
17,TCCCCGTCAGTTGCCGAGA,0.233
18,TCCCTATTAGTACTCGAGA,0.319
19,TCCCTGCTAGTCGGGGAGA,0.178
20,TCCCTGCCAGTACAGGAGA,0.104
21,TCCCTGAAAGTATTCGAGA,0.102
22,TCCCTTTGAGTAATTGAGA,0.111
23,TCCCGCCAAGTGGCGGAGA,0.272
24,TCCCTGGGAGTGAGTGAGA,0.17
25,TCCCTGTCAGTTTCGGAGA,0.329
26,TCCCGTGAAGTCCGGGAGA,0.138

row,Sequence,TetR repression strength
1,TCCCGACCAGTAGTGGAGA,0.368
2,TCCCATAGAGTCTTGGAGA,0.21
3,TCCCTGCGAGTTGGAGAGA,0.0995
4,TCCCATTGAGTATTTGAGA,0.161
5,TCCCTGCTAGTCGGTGAGA,0.228
6,TCCCATGTAGTGTTAGAGA,0.217
7,TCCCGTCCAGTGCATGAGA,0.357
8,TCCCGTTAAGTGGAAGAGA,0.265
9,TCCCCTTGAGTAAGCGAGA,0.299
10,TCCCTCCGAGTAGGCGAGA,0.745
11,TCCCAAATAGTGGGGGAGA,1.1
12,TCCCGCAGAGTGGTAGAGA,0.158
13,TCCCGACAAGTTTAAGAGA,0.349
14,TCCCCGTTAGTTCCGGAGA,0.143
15,TCCCCTAGAGTCTGAGAGA,0.122
16,TCCCCGGTAGTGTCAGAGA,0.18
17,TCCCAACGAGTACGCGAGA,0.513
18,TCCCGCTCAGTGCCTGAGA,0.348
19,TCCCCGGGAGTCGACGAGA,0.315
20,TCCCTTCGAGTGTGGGAGA,0.213
21,TCCCGATGAGTGCACGAGA,0.219
22,TCCCATCGAGTAGCGGAGA,0.237
23,TCCCGACAAGTGATAGAGA,0.642
24,TCCCCCTTAGTGATGGAGA,0.114
25,TCCCGTGGAGTGTAGGAGA,0.217
26,TCCCGATCAGTGATAGAGA,0.778

row,Sequence,TetR repression strength
1,TCCCTAGGAGTAAAGGAGA,0.244
2,TCCCGTACAGTGTATGAGA,0.062
3,TCCCTGTAAGTTATAGAGA,0.375
4,TCCCTCTTAGTTTGCGAGA,0.796
5,TCCCGCCAAGTGGGTGAGA,0.292
6,TCCCATTCAGTTGAGGAGA,0.373
7,TCCCTACTAGTTTCTGAGA,0.203
8,TCCCTGGTAGTTGTTGAGA,0.336
9,TCCCTGGTAGTTGTGGAGA,0.207
10,TCCCTGGTAGTAGGGGAGA,0.257
11,TCCCAGATAGTGTGTGAGA,0.0799
12,TCCCACCCAGTACCTGAGA,0.242
13,TCCCTTGAAGTTATGGAGA,0.346
14,TCCCCGGCAGTCCATGAGA,0.164
15,TCCCTTCGAGTGCCAGAGA,0.275
16,TCCCCGTAAGTCGGTGAGA,0.0631
17,TCCCCATTAGTTCATGAGA,0.17
18,TCCCAGGCAGTTGCGGAGA,0.239
19,TCCCTGCGAGTAGCAGAGA,0.323
20,TCCCGTGTAGTCACTGAGA,0.207
21,TCCCTTTCAGTAATCGAGA,0.512
22,TCCCCGCCAGTTCACGAGA,0.207
23,TCCCGGCGAGTGACTGAGA,0.299
24,TCCCAGATAGTCAGCGAGA,0.131
25,TCCCCTGTAGTGCATGAGA,0.448
26,TCCCTGTTAGTAGCTGAGA,0.188

row,Sequence,TetR repression strength
1,TCCCACGCAGTACTAGAGA,0.395
2,TCCCCGTTAGTTGACGAGA,0.23
3,TCCCTGTGAGTTTAAGAGA,0.506
4,TCCCTTCTAGTCTCTGAGA,0.487
5,TCCCCATCAGTAGACGAGA,0.299
6,TCCCTCGGAGTAACAGAGA,0.219
7,TCCCGCCTAGTGGACGAGA,0.27
8,TCCCGAGGAGTATCAGAGA,0.293
9,TCCCACGTAGTTCTAGAGA,0.299
10,TCCCGGAGAGTGGTTGAGA,0.157
11,TCCCAGGGAGTAATCGAGA,0.283
12,TCCCCGGTAGTGGTCGAGA,0.315
13,TCCCTTGGAGTATATGAGA,0.119
14,TCCCGAAAAGTGCGTGAGA,0.126
15,TCCCGTGAAGTTTGCGAGA,0.0551
16,TCCCAAACAGTTAAAGAGA,0.347
17,TCCCTGGCAGTTAGGGAGA,0.365
18,TCCCAAGTAGTACGGGAGA,0.201
19,TCCCTTAAAGTGCTCGAGA,0.747
20,TCCCGCGCAGTGTGAGAGA,0.191
21,TCCCGACCAGTTGAAGAGA,0.159
22,TCCCCTGGAGTGGCTGAGA,0.313
23,TCCCGACTAGTGCCTGAGA,0.521
24,TCCCGGCAAGTCGAGGAGA,0.191
25,TCCCATGGAGTCGGGGAGA,0.261
26,TCCCTGATAGTTTAGGAGA,0.478

row,Sequence,TetR repression strength
1,TCCCGTGAAGTTGAGGAGA,0.193
2,TCCCAGACAGTGTCAGAGA,0.134
3,TCCCCAGTAGTAGGGGAGA,0.224
4,TCCCTTGGAGTTGGCGAGA,0.423
5,TCCCCTAGAGTTGCGGAGA,0.326
6,TCCCAGGAAGTTTATGAGA,0.255
7,TCCCCTTGAGTATGGGAGA,0.288
8,TCCCATCCAGTGGATGAGA,0.399
9,TCCCAATAAGTCGACGAGA,0.0319
10,TCCCTACAAGTGTGGGAGA,0.147
11,TCCCGTGAAGTATGGGAGA,0.138
12,TCCCTGTCAGTTCTGGAGA,0.326
13,TCCCTCAGAGTGGGAGAGA,0.271
14,TCCCGTTTAGTGCGGGAGA,0.252
15,TCCCTGCCAGTTTCCGAGA,0.207
16,TCCCTTTGAGTAACTGAGA,0.214
17,TCCCGTTGAGTGCCTGAGA,0.23
18,TCCCTTGTAGTTGTGGAGA,0.229
19,TCCCTGTGAGTAAGGGAGA,0.212
20,TCCCGGACAGTCAGTGAGA,0.191
21,TCCCCCGGAGTGAGGGAGA,0.117
22,TCCCGCGAAGTGAAGGAGA,0.138
23,TCCCGTTTAGTGGTAGAGA,0.166
24,TCCCTCATAGTAAGAGAGA,0.291
25,TCCCTTCCAGTACGAGAGA,0.217
26,TCCCCGACAGTGGCAGAGA,0.221

row,Sequence,TetR repression strength
1,TCCCCCGCAGTCACGGAGA,0.234
2,TCCCGCAGAGTCCGTGAGA,0.18
3,TCCCTATTAGTGCTGGAGA,0.314
4,TCCCACGCAGTGGACGAGA,0.182
5,TCCCCGTCAGTCATAGAGA,0.447
6,TCCCCCAGAGTTTGGGAGA,0.132
7,TCCCTGGGAGTGGCAGAGA,0.223
8,TCCCAGTGAGTGATGGAGA,0.138
9,TCCCATATAGTTGTGGAGA,0.105
10,TCCCCGGTAGTGTCTGAGA,0.225
11,TCCCGGCTAGTTGCTGAGA,0.144
12,TCCCCACCAGTACCGGAGA,0.235
13,TCCCATAGAGTCGCCGAGA,0.321
14,TCCCTGCGAGTGGCAGAGA,0.126
15,TCCCTAAGAGTGGGGGAGA,0.198
16,TCCCATGTAGTACATGAGA,0.0597
17,TCCCGCGCAGTTGTGGAGA,0.139
18,TCCCATACAGTCGTCGAGA,0.177
19,TCCCTGGCAGTGCCCGAGA,0.314
20,TCCCCATTAGTACACGAGA,0.186
21,TCCCTGTAAGTGTGGGAGA,0.113
22,TCCCTAGTAGTGTGGGAGA,0.216
